# Measured values: PubChem BioAssay AID504832 (National Center for Advancing Translational Sciences (NCATS), 2011)
# The campaign covered roughly 310,000 compounds. About 18,000 (5.8%) were called active. The shares of active, inactive and inconclusive entries below differ from those in the screen. The call rests on the fitted dose curve; in most records, active means well fitted inhibition curve with a large enough effect; inconclusive means small, poorly fitted or top-dose-only effect, or another doubt; inactive means no such curve, though single readings can be large or run the other way. Potencies of inconclusive entries are left out as doubtful fits.
# Experiment: Primary qHTS for delayed death inhibitors of the malarial parasite plastid, 48 hour incubation
# Settings: P. falciparum luciferase growth in erythrocytes; series mostly up to 28.7 µM
# Summary of the method: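 Read-out is firefly luciferase luminescence from an integrated reporter in P. falciparum, so falling signal marks reduced parasite growth. Infected erythrocytes were at 2% hematocrit and 0.1% parasitemia (final) in Albumax-supplemented RPMI 1640.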
# Potency means the concentration at half of the fitted maximal effect; tags describe the fitted curve by direction and shape.
row,SMILES,Potency
1,COc1ccc2oc(C(=O)Nc3ccc(C)cn3)c(C)c2c1,inactive
2,O=C(O)C(Cc1c[nH]c2ccccc12)N1C(=O)c2ccccc2C1=O (centres undefined),inactive
3,Cc1ccc2c(c1)N(CC(=O)N1CCCCC1)C(=O)CO2,inactive
4,COC(=O)c1ccc(Cn2cc(Cl)cn2)o1,inactive
5,CCOc1cc(CC(=O)N[C@@H](CC(C)C)c2ccccc2N2CCCCC2)ccc1C(=O)O,inactive
6,COCCCNC(=O)C(=O)N/N=C/c1ccc(OCC(=O)Nc2cccc(Cl)c2C)c(OC)c1,inactive
7,Cc1cc(C)c2nc(-c3ccccn3)cc(C(=O)Nc3ccc(S(=O)(=O)Nc4onc(C)c4C)cc3)c2c1,"inconclusive [inhibitor, single point]"
8,COc1ccc(NC(=O)c2ccc(NS(=O)(=O)c3c(C)noc3C)cc2)cc1OC,"inconclusive [inhibitor, full curve, poor fit]"
9,CCC(C)n1cnc2c(c1=O)c1nc3ccccc3nc1n2Cc1ccc(OC)cc1 (centres undefined),"inconclusive [inhibitor, partial curve]"
10,O=C(N/N=C\c1ccncc1)c1ccc(Cl)s1,inactive
11,COc1ccccc1N(Cc1cc2cccc(C)c2[nH]c1=O)C(=O)C(C)C,"inconclusive [inhibitor, partial curve]"
12,Cc1cc(OCCCn2ccnc2)ccc1C(C)C,"inconclusive [inhibitor, single point]"
13,Cc1ccc(S(=O)(=O)c2cc3c(=O)n4cccc(C)c4nc3n(Cc3ccncc3)c2=N)cc1,"inconclusive [inhibitor, single point]"
14,Cc1cc(NCc2ccccn2)n2nc(C)c(-c3ccc(Cl)cc3)c2n1,active: 1.65 µM
15,c1coc(-c2nc3nc4ccccc4nc3n2-c2ccc3c(c2)OCCO3)c1,"inconclusive [inhibitor, full curve, poor fit]"
16,CC(C)CC(NC(=O)OC(C)(C)C)c1cn([C@@H](Cc2cc3ccccc3[nH]2)C(=O)N2CCN(C(=O)OC(C)(C)C)CC2)nn1 (some centres undefined),"inconclusive [inhibitor, full curve]"
17,CN(Cc1ccc2nonc2c1)Cc1nc(Cc2cccc(F)c2)no1,"inconclusive [inhibitor, partial curve, poor fit]"
18,CCc1ccc(NC(=O)C2C3/C=C\CCCCC32)cc1 (centres undefined),inactive
19,COc1cc(NC(=O)C2CCCN2C(=O)C2CCC(C)CC2)cc(OC)c1OC (centres undefined),"inconclusive [inhibitor, single point]"
20,CCC(ONc1ccccc1C(F)(F)F)(C(=O)NN(C)C)c1ccccc1 (centres undefined),"inconclusive [inhibitor, single point]"
21,COc1ccccc1N1CCN(C(=O)C2CCCN(c3ncnc4c3nc3n4CCCCC3)C2)CC1 (centres undefined),active: 9.28 µM
22,COc1ccc(-c2csc3nc(C)nc(N4CCCCC4)c23)cc1OC,"inconclusive [inhibitor, partial curve]"

row,SMILES,Potency
1,O=C(O)c1ccc2c(=O)n3c(nc2c1)/C(=C/c1cccc(Cl)c1Cl)CCCC3,inactive
2,Cc1cc(N(C)C)nc(Nc2ccccc2)n1,active: 13.1 µM
3,CCC(CC)c1nnc(NC(=O)C2COc3ccccc3O2)s1 (centres undefined),inactive
4,O=C(O)C1Cc2[nH]cnc2C(c2ccc(F)cc2)N1 (centres undefined),"inconclusive [inhibitor, partial curve, poor fit]"
5,CCCCc1ccc(NC(=O)CSc2nc(=O)n3cc(C)ccc3n2)cc1,"inconclusive [inhibitor, single point]"
6,O=C(C1CCN(S(=O)(=O)c2ccc(Cl)cc2)CC1)N1CCCCCCC1,"inconclusive [inhibitor, single point]"
7,CC(C)(C)C(=O)Nc1ccc(S(=O)(=O)c2ccc(NC(=O)C(C)(C)C)cc2)cc1,"inconclusive [inhibitor, single point]"
8,Cc1ccc(-n2c(C)cc(C(=O)CN3CCCCC3)c2C)cc1,"inconclusive [inhibitor, single point]"
9,COCCc1ncc(CN2CCCCC2C(=O)Nc2ccc(Oc3ccccc3)nc2)cn1 (centres undefined),inactive
10,Cc1ccc(NC(=O)c2cc(-c3ccccc3O)n[nH]2)cc1C,"inconclusive [inhibitor, partial curve]"
11,O=C(Cn1cnc2c(nnn2Cc2ccc(Cl)cc2)c1=O)N1CCN(c2ccccc2)CC1,"inconclusive [inhibitor, single point]"
12,CCC1CCCCN1CC(O)Cn1c2ccccc2n2c(=O)cc(C)c(C#N)c12 (centres undefined),"inconclusive [inhibitor, single point]"
13,COc1ccc(N(CC(O)Cn2nnc3ccccc32)S(=O)(=O)c2ccc(C)cc2)cc1 (centres undefined),"inconclusive [inhibitor, single point]"
14,Cc1cccc(C(C)C)c1NS(=O)(=O)c1cn(C)nc1C,"inconclusive [inhibitor, single point]"
15,O=C(CSc1ccccc1)N1CCCC(N2CCN(c3ccc(F)cc3)CC2)C1 (centres undefined),"inconclusive [inhibitor, single point]"
16,CCOC(=O)c1ccc(NC(=S)N2CCN(Cc3ccccc3)CC2)cc1,inactive
17,COc1cc(NCCCCCCCN)c2ncccc2c1,active: 2.62 µM
18,CCOc1ccccc1CN1CCN(Cc2[nH]c3ccccc3c2C)CC1CCO (centres undefined),"inconclusive [inhibitor, single point]"
19,Cc1ccc(O)c(N=NC2=C(O)CC(C)(C)CC2=O)c1,"inconclusive [inhibitor, full curve, poor fit]"
20,COc1cccc(N2CC(C(=O)Nc3nnc(SCc4ccccn4)s3)CC2=O)c1 (centres undefined),"inconclusive [inhibitor, partial curve, poor fit]"
21,OC(CNCC(c1ccco1)N1CCCCC1)c1ccccc1 (centres undefined),active: 1.31 µM
22,CCC(C)Sc1ccc([C@@H]2[C@@H]3C(=O)N(C)C(=O)[C@@H]3[C@]3(C(=O)OC)CCCCN23)cc1 (some centres undefined),"inconclusive [inhibitor, single point]"
